# Assay results published in the supplement of paper PMC7826260.
# The other results are listed elsewhere or left out. One pool of 16,384 single-stranded DNAs met each Rep nickase domain in vitro for 1 h at 37 °C with 3 µM enzyme; only the middle of the 90-letter strands is printed. Values are log2 of uncut reads against the no-enzyme pool; the lower, the more was cut; hits are not called. Reads are scaled to the total; values above 0 arise when much of the pool is cut.
# How the values were obtained:
# Assay in all cases: uncleaved DNA left, log2 of reads against the no-enzyme library (log2 ratio); higher = less cleavage (more negative = more Rep cleavage of the k-mer); sequences stand for … in CTCGTCCG…ACCGGAGA
# [1] = system: T1, Rep nickase domain of Muscovy duck circovirus
# T1 sequence (residues 1-111 of Rep, tag left off): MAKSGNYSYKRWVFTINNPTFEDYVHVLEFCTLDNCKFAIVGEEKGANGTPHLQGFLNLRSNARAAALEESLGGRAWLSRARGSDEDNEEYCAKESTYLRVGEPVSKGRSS
# Description: (§1)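 A pool of 90-nt single-stranded DNAs with seven random bases just before the constant AC of the nick site (name = the seven bases) was cut by 3 µM recombinant His6-SUMO-tagged Rep nickase domain (300 nM DNA, 50 mM HEPES pH 8.0, 50 mM NaCl, 1 mM MnCl2, 1 h, 37 °C, three replicates). Uncut DNA was amplified and sequenced.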
# [2] = system: T2, Rep nickase domain of banana bunchy top virus
# T2 sequence (residues 1-94 of Rep, tag left off): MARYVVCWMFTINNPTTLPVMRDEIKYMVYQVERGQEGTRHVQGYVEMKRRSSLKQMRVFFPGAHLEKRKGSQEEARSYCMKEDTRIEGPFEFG
# Description: as §1
# [3] = system: T3, Rep nickase domain of cabbage leaf curl virus
# T3 sequence (residues 1-116 of Rep, tag left off): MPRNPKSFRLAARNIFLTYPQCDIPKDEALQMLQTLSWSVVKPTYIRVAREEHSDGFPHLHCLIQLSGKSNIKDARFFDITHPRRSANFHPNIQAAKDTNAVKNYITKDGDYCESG
# Description: as §1
# [4] = system: T4, Rep nickase domain of chickpea chlorotic dwarf virus
# T4 sequence (residues 1-124 of Rep, tag left off): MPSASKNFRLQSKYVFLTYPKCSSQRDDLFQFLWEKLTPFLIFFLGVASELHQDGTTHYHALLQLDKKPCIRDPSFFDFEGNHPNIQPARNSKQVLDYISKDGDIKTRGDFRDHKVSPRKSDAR
# Description: as §1
# [5] = system: T5, Rep nickase domain of faba bean necrotic yellows virus
# T5 sequence (residues 1-98 of Rep, tag left off): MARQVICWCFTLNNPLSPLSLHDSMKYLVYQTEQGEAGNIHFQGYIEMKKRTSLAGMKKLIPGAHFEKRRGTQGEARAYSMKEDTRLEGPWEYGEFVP
# Description: as §1
# [6] = system: T6, Rep nickase domain of maize striate mosaic virus
# T6 sequence (residues 1-117 of Rep, tag left off): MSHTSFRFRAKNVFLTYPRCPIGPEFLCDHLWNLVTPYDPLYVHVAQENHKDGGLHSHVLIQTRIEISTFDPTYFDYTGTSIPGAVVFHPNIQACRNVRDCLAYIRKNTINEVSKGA
# Description: as §1
# [7] = system: T7, Rep nickase domain of porcine circovirus 2
# T7 sequence (residues 2-116 of Rep, tag left off): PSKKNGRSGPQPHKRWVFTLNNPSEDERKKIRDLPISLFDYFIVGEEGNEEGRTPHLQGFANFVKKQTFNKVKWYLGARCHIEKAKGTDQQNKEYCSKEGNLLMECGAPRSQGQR
# Description: as §1
# [8] = system: T8, Rep nickase domain of tomato golden mosaic virus
# T8 sequence (residues 1-124 of Rep, tag left off): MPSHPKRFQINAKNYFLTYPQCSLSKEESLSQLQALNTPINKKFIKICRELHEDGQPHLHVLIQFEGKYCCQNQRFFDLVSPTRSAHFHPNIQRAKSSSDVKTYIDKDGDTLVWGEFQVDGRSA
# Description: as §1
# [9] = system: T9, Rep nickase domain of tomato yellow leaf curl virus
# T9 sequence (residues 1-136 of Rep, tag left off): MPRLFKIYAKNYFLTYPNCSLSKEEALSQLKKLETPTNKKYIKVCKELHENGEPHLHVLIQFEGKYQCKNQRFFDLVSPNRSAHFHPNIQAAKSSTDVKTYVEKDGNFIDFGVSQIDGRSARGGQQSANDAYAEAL
# Description: as §1
# [10] = system: T10, Rep nickase domain of wheat dwarf virus
# T10 sequence (residues 1-137 of Rep, tag left off): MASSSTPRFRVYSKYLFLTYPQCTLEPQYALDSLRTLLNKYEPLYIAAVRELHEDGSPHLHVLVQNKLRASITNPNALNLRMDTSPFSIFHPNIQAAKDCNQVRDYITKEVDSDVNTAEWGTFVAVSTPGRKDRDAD
# Description: as §1
Sequence,uncleaved DNA left (log2) [1],uncleaved DNA left (log2) [2],uncleaved DNA left (log2) [3],uncleaved DNA left (log2) [4],uncleaved DNA left (log2) [5],uncleaved DNA left (log2) [6],uncleaved DNA left (log2) [7],uncleaved DNA left (log2) [8],uncleaved DNA left (log2) [9],uncleaved DNA left (log2) [10]
TCCGCGA,-0.0861,-0.101,-0.691,-0.265,-0.0469,-0.636,0.0328,-0.17,-0.132,-0.245
CGTCTAA,-0.0442,0.0104,-0.165,-0.0961,-0.05,-0.0843,-0.116,-0.0918,-0.0441,-0.0302
GAAATGC,0.0126,0.0291,-0.35,-0.332,0.0283,-0.937,0.102,-0.089,0.103,0.0203
ACCTACA,-0.046,0.0344,-0.379,-2.53,0.0216,-0.804,-0.16,0.14,0.0371,-0.0181
CCCAGGT,0.00317,0.059,0.333,1.23,-0.137,1.44,0.282,0.0468,-0.105,0.141
CTGGCGC,0.033,0.0837,-0.663,-0.391,0.00201,-0.595,0.259,0.0343,0.0918,-0.262
ATGGCCG,-0.0823,-0.0833,-0.777,-0.347,-0.0453,-0.988,0.125,-0.109,0.00127,-0.122
TAGGATA,0.0799,-0.00415,0.225,0.872,0.0266,1.5,0.109,0.155,-0.0627,0.0794
TAAGAGG,0.126,0.0653,0.346,0.902,-0.0474,0.802,0.113,0.156,-0.0525,0.171
CTGCGAC,-0.107,-0.101,-0.578,-0.261,-0.0564,-0.975,0.00862,-0.147,-0.105,-0.107
GTTCTAT,0.00935,0.111,0.339,0.884,-0.0686,1.76,0.122,0.0219,0.1,0.0464
TAAAACA,0.0741,0.116,-2.38,-2.68,0.0731,-0.699,-0.0143,-0.0785,0.0774,-1.12
GAGTCGG,0.0689,0.0743,0.462,1.18,0.0339,1.53,0.0502,0.0865,-0.0482,0.011
CATACTA,0.0384,0.0524,-0.114,-2.46,0.183,-0.482,-0.0452,0.0679,0.132,0.118
TTAACTA,-0.0374,0.0729,-0.0414,-1.27,0.0307,0.209,-0.0387,-0.00898,0.0756,0.0671
GGTGAGA,0.0993,0.123,0.837,1.68,0.137,1.95,0.285,0.134,0.0755,0.222
TCAGACT,0.0476,-0.119,0.0405,-1.15,-0.12,0.749,0.0306,-0.13,-0.0253,0.0531
GTCCTGT,0.147,0.329,0.486,0.875,0.145,1.94,0.156,0.262,0.223,0.228
AGTTCGT,0.0974,0.00533,-0.399,-0.674,0.0487,-1.01,-2.38,0.0145,0.0533,-0.0213
CAGCCCT,-0.138,-0.0821,-0.0562,-2.4,-0.128,0.0252,-2.06,-0.159,-0.0985,-0.0993
TGACCAC,0.154,0.0949,0.403,0.376,0.0361,0.724,0.0236,0.0514,0.0836,0.172
TGGACGC,0.0255,0.117,0.772,1.83,-0.0844,2.04,0.111,0.0139,-0.0771,-0.00801
ACGCCAA,-0.0348,0.0929,-0.107,-0.0525,0.158,-0.313,0.07,-0.0953,-0.189,-0.144
TTGGTAA,0.108,0.194,0.418,0.632,0.179,0.925,0.0848,0.134,0.0786,0.117
AAGTAAC,0.15,0.0493,-0.307,-1.23,0.0473,-0.447,-1.98,-0.0201,-0.0161,-0.031
TTCCCGA,-0.145,-0.148,-0.139,-0.538,-0.217,-0.814,-0.262,-0.172,-0.0624,-0.111
CAAGGTC,-0.0309,-0.0264,0.133,0.506,-0.145,0.592,-0.155,-0.0685,-0.0835,-0.133
GAAACCT,-0.0962,0.00626,-0.516,-2.03,0.0226,0.604,-0.675,0.025,0.025,-0.0419
CAAGTTA,-0.138,-0.0266,-0.206,-1.57,-0.0888,-0.513,-0.156,-0.0645,-0.0512,-0.0383
